Laboratory results published in PubChem BioAssay AID485294 (National Center for Advancing Translational Sciences (NCATS), 2010).
About 150 (0.041%) of roughly 370,000 compounds were called active. Inconclusive results, whose numbers are uncertain, are shown with a selection of clear calls. Calls come from the whole dose curve; as a rule, active = well fitted inhibition curve with a large enough effect; inconclusive = small, poorly fitted or top-dose-only effect; inactive = flat fitted curve, though single readings scatter. No potency is given beside an inconclusive call; the fits are too rough.

What follows are molecules tested against Beta-lactamase (Escherichia coli (strain K12)) (UniProt P00811) (assay: qHTS Inhibitors of AmpC Beta-Lactamase (assay with detergent)). Conditions: AmpC hydrolysis of nitrocefin, absorbance 480 nm, 0.01% Triton; activity change, negative = inhibition: at 114 µM (top of the series).
Summary of the method: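 AmpC (5.3 nM in the dispensed reagent) in 20 mM phosphate pH 7.0 with 0.01% (detergent screen) or 0.0001% Triton X-100 was preincubated with compounds for 15 min at room temperature. Nitrocefin was then added from an 800 uM solution, and hydrolysis was followed at 480 nm.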
Note: nearly all actives have a fitted effect of over 25% in size.
Potency is the fitted concentration of half-maximal effect; tags give direction and shape of the fitted curve.
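Throughout, for activity change, negative = inhibition: 0% = no-compound wells and -100% = no-enzyme wells.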

Chain of UniProt P00811 (P00811 whole entry, looked up): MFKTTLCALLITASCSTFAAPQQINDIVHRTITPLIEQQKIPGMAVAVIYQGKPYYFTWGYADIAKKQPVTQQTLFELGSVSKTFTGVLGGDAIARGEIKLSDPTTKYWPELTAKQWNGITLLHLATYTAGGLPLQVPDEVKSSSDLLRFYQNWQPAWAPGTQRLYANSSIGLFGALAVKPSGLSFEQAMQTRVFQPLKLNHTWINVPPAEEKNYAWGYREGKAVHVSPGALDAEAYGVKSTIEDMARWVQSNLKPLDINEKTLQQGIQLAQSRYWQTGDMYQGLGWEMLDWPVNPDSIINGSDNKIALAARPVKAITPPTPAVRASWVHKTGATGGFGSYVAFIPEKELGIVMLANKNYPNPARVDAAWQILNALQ

Structure (SMILES)	activity change, negative = inhibition	Potency
O=S(=O)(c1ccccc1)N1CCN(c2nc3ccccc3s2)CC1	inactive: -2.33%	–
COc1ccc(Cn2c(SCC#N)nc3ccc(N4CCOCC4)cc3c2=O)cc1	–	inconclusive [inhibitor, single point]
CCOc1ccccc1CN1CCN(CC2=Cc3cc(OC)ccc3OC2)CC1CCO (configuration not stated)	inactive: -1.11%	–
COc1ccccc1NC(=O)C1CCN(S(=O)(=O)c2cccs2)CC1	inactive: -1.98%	–
Cc1ccccc1C(=O)N(CC(=O)Nc1sc(C)c(C)c1C(N)=O)C1CCCC1	–	inconclusive [inhibitor, full curve, poor fit]
Cc1[nH]nc2c1C(c1ccc(F)cc1)C(C#N)=C(N)O2 (configuration not stated)	inactive: -3.42%	–
Cc1cc(NC(=O)CSc2ncnc3sccc23)no1	–	inconclusive [inhibitor, partial curve, poor fit]
Cc1ccc(C(c2sc3nc(-c4ccco4)nn3c2O)N2CCCCC2)cc1 (configuration not stated)	inactive: -4.89%	–
COC(=O)c1c(NC(=S)Nc2cc(OC)c(Cl)cc2OC)sc2c1CCCCC2	–	inconclusive [inhibitor, full curve, poor fit]
Cc1nc(C(=O)N2CCCC(Nc3ccc(C)c(C)c3)C2)cs1 (configuration not stated)	inactive: 1.34%	–
CCOC(=O)c1[nH]c(CSc2nnc(-c3ccncc3)n2CCOC)c(C(=O)OCC)c1C	–	inconclusive [inhibitor, full curve, poor fit]
CCOc1ccc(CNC(=O)Cn2nc(C)c3sc4ccccc4c3c2=O)cc1	inactive: 2.61%	–
Clc1nc(Cl)nc(NCCC2=CCCCC2)n1	–	inconclusive [inhibitor, full curve]
O=C(Nc1ccc(Br)cc1)c1ccc(Br)c(S(=O)(=O)NCc2ccccc2)c1	inactive: -1.49%	–
CCCCCCC(=O)N1CCCC(c2nc(-c3cccc(OC)c3)no2)C1 (configuration not stated)	–	inconclusive [inhibitor, full curve, poor fit]
CC(C)c1ccc(N2C(=O)/C(=C/N(C)C)SC2=S)cc1	inactive: -0.0591%	–
CCOC(=O)N1CCN(C(=O)CSc2ccc(-c3ccc(OC)cc3)nn2)CC1	–	inconclusive [inhibitor, single point]
Cn1c(SCC(=O)Nc2ccc3c(c2)OCCO3)nnc1-c1cccnc1	–	inconclusive [inhibitor, single point]
COc1cccc(/C=C/C(=O)OCC(=O)c2ccc(C)c(C)c2)c1OC	–	inconclusive [inhibitor, full curve, poor fit]
CC(=O)c1c(N2CCCCC2)nc(=S)n(-c2ccccc2)c1C	–	inconclusive [inhibitor, full curve]
CCOC(=O)c1c(C)c(C(=O)NCCc2ccc(OC)cc2)c(C)n1CC	inactive: 6.53%	–
COc1cccc2cc(-c3nc(-c4cccs4)no3)c(=O)oc12	inactive: 5.7%	–
CCOc1ccc(S(=O)(=O)N2CCC(C(=O)NCc3ccco3)CC2)cc1C	inactive: -11%	–
COc1nc(NCCN2CCOCC2)nc(Nc2ccccc2)n1	–	inconclusive [inhibitor, full curve, poor fit]

Structure (SMILES)	activity change, negative = inhibition	Potency
CCc1ccc2c(CN3CCc4ccccc43)cc(=O)oc2c1	–	inconclusive [inhibitor, full curve, poor fit]
O=C(CN1C(=O)COc2ccccc2C1=O)c1ccc2c(c1)OCCO2	–	inconclusive [inhibitor, single point]
Cc1nc2ccccc2n(CC(=O)Nc2cc(Cl)cc(Cl)c2)c1=O	inactive: -3.21%	–
Cc1[nH]c2ccc(OCc3ccccc3)cc2c1CCN1C(=O)OC(C)(C)C1(C)O (configuration not stated)	–	inconclusive [inhibitor, partial curve, poor fit]
c1ccc(CSc2nnc3ccc(-c4ccco4)nn23)nc1	–	inconclusive [inhibitor, full curve, poor fit]
CN(C(=O)c1cccc(Nc2ccc(-c3ccc4c(c3)OCCO4)nn2)c1)C1CCCCC1	–	inconclusive [inhibitor, single point]
CCN(CC)c1ccc(CN(C)CCc2ccc(OC)c(OC)c2)cc1	–	inconclusive [inhibitor, single point]
COc1cc(/C=C2\SC(=S)N(Nc3ncc(C(F)(F)F)cc3Cl)C2=O)ccc1O	–	inconclusive [inhibitor, full curve, poor fit]
O=C(NNC(=O)c1ccccc1-c1ccccc1C(=O)O)c1ccccc1	inactive: 0.646%	–
CCOC(=O)C1=C(C)OC(N)=C(C#N)C1c1ccsc1 (configuration not stated)	inactive: -3.83%	–
COc1ccc(CSc2nc3ccncc3n2Cc2nc(-c3ccc(OC)c(OC)c3)oc2C)cc1	inactive: 22.8%	–
O=C(Cn1nnc(-c2ccccc2NC(=O)c2ccco2)n1)Nc1ccccc1	–	inconclusive [inhibitor, full curve, poor fit]
CCCCn1c(SCC(=O)Nc2nnc(C)s2)nc2c1c(=O)n(C)c(=O)n2C	–	inconclusive [inhibitor, partial curve, poor fit]
Cc1ccc(C(=O)NCCNS(=O)(=O)c2ccccc2[N+](=O)[O-])cc1	–	inconclusive [inhibitor, partial curve, poor fit]
O=C(O)/C=C\C(=O)Nc1ccccc1C#Cc1ccccc1	inactive: -0.462%	–
CCC(=O)Nc1cccc(NC(=O)c2ccc(Br)cc2)c1	inactive: -6.18%	–
CCOc1ccc(C2(C)NC(=O)N(CCN(C)C)C2=O)cc1 (configuration not stated)	–	inconclusive [inhibitor, full curve, poor fit]
Brc1ccc(C2Nc3cccc4cccc(c34)N2)s1	inactive: -8.48%	–
Cc1ccc(C(=O)c2cc([N+](=O)[O-])ccc2N2CCOCC2)cc1	inactive: -17.5%	–
O=C(COc1coc(CN2CCN(c3ccccc3)CC2)cc1=O)NC1CCCCC1	inactive: 0%	–
COc1ccc(CC2(CO)CCN(S(=O)(=O)c3cccc4cccnc34)CC2)cc1	–	inconclusive [inhibitor, full curve, poor fit]
CC1Oc2ccccc2N(CC(=O)N2CCCc3ccccc32)C1=O (configuration not stated)	–	inconclusive [inhibitor, single point]
Cc1ccccc1C(=O)Nc1nc2c(s1)CC(C(C)(C)C)CC2 (configuration not stated)	inactive: 16.7%	–
